Results reported in PMC9911399, “Two distinct binding modes provide the RNA-binding protein RbFox with extraordinary sequence specificity”.
Substitutions are numbered along the chain they refer to; changes in the protein carry UniProt numbers. The list shows a part of the results.

T1: RBFOX1 RRM RbFoxmut (Fox-RRM*) (Homo sapiens, UniProt Q9NWB1 109-208, R118D;E147R;N151S;E152T)
T1 sequence: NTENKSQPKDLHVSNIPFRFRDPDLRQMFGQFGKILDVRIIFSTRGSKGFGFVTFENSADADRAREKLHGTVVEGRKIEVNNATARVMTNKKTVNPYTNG

B1: UGUCAGG (DNA:RNA)
RNA: GGGAGACCGGAAUUCAGAUUGUCCUGUCAGGUUAAAUCCCGUCGUAGCCACCA
DNA 1: CAATCTGAATTCCGGTCTCCC
DNA 2: TGGTGGCTACGACGGGATT
B2: UGUCGAU (DNA:RNA)
RNA: B1 RNA with A29G, G30A, G31U
DNA 1: CAATCTGAATTCCGGTCTCCC
DNA 2: TGGTGGCTACGACGGGATT
B3: AUCAGUC (DNA:RNA)
RNA: GGGAGACCGGAAUUCAGAUUGUCCAUCAGUCUUAAAUCCCGUCGUAGCCACCA
DNA 1: CAATCTGAATTCCGGTCTCCC
DNA 2: TGGTGGCTACGACGGGATT
B4: UGGGAUA (DNA:RNA)
RNA: B1 RNA with U27G, C28G, G30U, G31A
DNA 1: CAATCTGAATTCCGGTCTCCC
DNA 2: TGGTGGCTACGACGGGATT
B5: UGUCUGU (DNA:RNA)
RNA: B1 RNA with A29U, G31U
DNA 1: CAATCTGAATTCCGGTCTCCC
DNA 2: TGGTGGCTACGACGGGATT
B6: UCUCCAA (DNA:RNA)
RNA: B1 RNA with G26C, A29C, G30A, G31A
DNA 1: CAATCTGAATTCCGGTCTCCC
DNA 2: TGGTGGCTACGACGGGATT
B7: UCGACUU (DNA:RNA)
RNA: B3 RNA with A25U, U26C, C27G, G29C, C31U
DNA 1: CAATCTGAATTCCGGTCTCCC
DNA 2: TGGTGGCTACGACGGGATT
B8: ACAGGCC (DNA:RNA)
RNA: B3 RNA with U26C, C27A, A28G, U30C
DNA 1: CAATCTGAATTCCGGTCTCCC
DNA 2: TGGTGGCTACGACGGGATT
B9: GGAUAGG (DNA:RNA)
RNA: B1 RNA with U25G, U27A, C28U
DNA 1: CAATCTGAATTCCGGTCTCCC
DNA 2: TGGTGGCTACGACGGGATT
B10: UGCCGUU (DNA:RNA)
RNA: B3 RNA with A25U, U26G, A28C, C31U
DNA 1: CAATCTGAATTCCGGTCTCCC
DNA 2: TGGTGGCTACGACGGGATT
B11: GCUAGAG (DNA:RNA)
RNA: B3 RNA with A25G, U26C, C27U, U30A, C31G
DNA 1: CAATCTGAATTCCGGTCTCCC
DNA 2: TGGTGGCTACGACGGGATT
B12: CGGCAGA (DNA:RNA)
RNA: B1 RNA with U25C, U27G, G31A
DNA 1: CAATCTGAATTCCGGTCTCCC
DNA 2: TGGTGGCTACGACGGGATT
B13: AUCAUUC (DNA:RNA)
RNA: B3 RNA with G29U
DNA 1: CAATCTGAATTCCGGTCTCCC
DNA 2: TGGTGGCTACGACGGGATT
B14: CGCAGCG (DNA:RNA)
RNA: B3 RNA with A25C, U26G, U30C, C31G
DNA 1: CAATCTGAATTCCGGTCTCCC
DNA 2: TGGTGGCTACGACGGGATT
B15: AGGGUGG (DNA:RNA)
RNA: B1 RNA with U25A, U27G, C28G, A29U
DNA 1: CAATCTGAATTCCGGTCTCCC
DNA 2: TGGTGGCTACGACGGGATT
B16: GGCGUUU (DNA:RNA)
RNA: B3 RNA with A25G, U26G, A28G, G29U, C31U
DNA 1: CAATCTGAATTCCGGTCTCCC
DNA 2: TGGTGGCTACGACGGGATT
B17: CGUUUUU (DNA:RNA)
RNA: B1 RNA with U25C, C28U, A29U, G30U, G31U
DNA 1: CAATCTGAATTCCGGTCTCCC
DNA 2: TGGTGGCTACGACGGGATT
B18: UCUUAAU (DNA:RNA)
RNA: B1 RNA with G26C, C28U, G30A, G31U
DNA 1: CAATCTGAATTCCGGTCTCCC
DNA 2: TGGTGGCTACGACGGGATT
B19: AAGAAUC (DNA:RNA)
RNA: B3 RNA with U26A, C27G, G29A
DNA 1: CAATCTGAATTCCGGTCTCCC
DNA 2: TGGTGGCTACGACGGGATT
B20: UCAGACG (DNA:RNA)
RNA: B1 RNA with G26C, U27A, C28G, G30C
DNA 1: CAATCTGAATTCCGGTCTCCC
DNA 2: TGGTGGCTACGACGGGATT
B21: AAACUCC (DNA:RNA)
RNA: B3 RNA with U26A, C27A, A28C, G29U, U30C
DNA 1: CAATCTGAATTCCGGTCTCCC
DNA 2: TGGTGGCTACGACGGGATT
B22: GGACUCU (DNA:RNA)
RNA: B1 RNA with U25G, U27A, A29U, G30C, G31U
DNA 1: CAATCTGAATTCCGGTCTCCC
DNA 2: TGGTGGCTACGACGGGATT
B23: CAGGUAC (DNA:RNA)
RNA: B3 RNA with A25C, U26A, C27G, A28G, G29U, U30A
DNA 1: CAATCTGAATTCCGGTCTCCC
DNA 2: TGGTGGCTACGACGGGATT
B24: CUCAAUA (DNA:RNA)
RNA: B3 RNA with A25C, G29A, C31A
DNA 1: CAATCTGAATTCCGGTCTCCC
DNA 2: TGGTGGCTACGACGGGATT
B25: AAACCGC (DNA:RNA)
RNA: B3 RNA with U26A, C27A, A28C, G29C, U30G
DNA 1: CAATCTGAATTCCGGTCTCCC
DNA 2: TGGTGGCTACGACGGGATT
B26: GAACCAC (DNA:RNA)
RNA: B3 RNA with A25G, U26A, C27A, A28C, G29C, U30A
DNA 1: CAATCTGAATTCCGGTCTCCC
DNA 2: TGGTGGCTACGACGGGATT
B27: GUAUGCG (DNA:RNA)
RNA: B3 RNA with A25G, C27A, A28U, U30C, C31G
DNA 1: CAATCTGAATTCCGGTCTCCC
DNA 2: TGGTGGCTACGACGGGATT
B28: CUCGAUU (DNA:RNA)
RNA: B3 RNA with A25C, A28G, G29A, C31U
DNA 1: CAATCTGAATTCCGGTCTCCC
DNA 2: TGGTGGCTACGACGGGATT
B29: UCGUAUC (DNA:RNA)
RNA: B3 RNA with A25U, U26C, C27G, A28U, G29A
DNA 1: CAATCTGAATTCCGGTCTCCC
DNA 2: TGGTGGCTACGACGGGATT
B30: GUCUGCU (DNA:RNA)
RNA: B3 RNA with A25G, A28U, U30C, C31U
DNA 1: CAATCTGAATTCCGGTCTCCC
DNA 2: TGGTGGCTACGACGGGATT
B31: GGAUGAA (DNA:RNA)
RNA: B3 RNA with A25G, U26G, C27A, A28U, U30A, C31A
DNA 1: CAATCTGAATTCCGGTCTCCC
DNA 2: TGGTGGCTACGACGGGATT

Target: T1, RBFOX1 RRM RbFoxmut (Fox-RRM*)
Experiment: EMSA; HiTS-Eq, 1 nM pool, 10 min; buffer printed only for the single-RNA assays: 10 mM Tris pH 7.5, 150 mM NaCl, 3.4 mM EDTA, 0.001% NP-40, 30 C
Settings: tags: His6 N-terminal (pET28a); label: 5' 32P
Method in brief: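 These values rest on relative association constants, computed from read-count changes of each RNA species versus the control reaction and normalised to the cognate motif. Reads came from free RNA recovered by 8% native PAGE after purified RbFox RRM (wild type or mutant) at increasing concentrations was equilibrated for 10 min in 50 µL with 1 nM of a 5′-radiolabelled pool with 7 randomized nucleotides and DNA-annealed flanks.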

Row | Binder | binding signal
1 | B1 | 0.0783 KA relative to UGCAUGU
2 | B2 | 0.0789 KA relative to UGCAUGU
3 | B3 | 0.0931 KA relative to UGCAUGU
4 | B4 | 0.144 KA relative to UGCAUGU
5 | B5 | 0.164 KA relative to UGCAUGU
6 | B6 | 0.0797 KA relative to UGCAUGU
7 | B7 | 0.0543 KA relative to UGCAUGU
8 | B8 | 0.18 KA relative to UGCAUGU
9 | B9 | 0.0913 KA relative to UGCAUGU
10 | B10 | 0.113 KA relative to UGCAUGU
11 | B11 | 0.101 KA relative to UGCAUGU
12 | B12 | 0.0836 KA relative to UGCAUGU
13 | B13 | 0.0825 KA relative to UGCAUGU
14 | B14 | 0.135 KA relative to UGCAUGU
15 | B15 | 0.126 KA relative to UGCAUGU
16 | B16 | 0.0849 KA relative to UGCAUGU

Row | Binder | binding signal
17 | B17 | 0.103 KA relative to UGCAUGU
18 | B18 | 0.0912 KA relative to UGCAUGU
19 | B19 | 0.168 KA relative to UGCAUGU
20 | B20 | 0.103 KA relative to UGCAUGU
21 | B21 | 0.0469 KA relative to UGCAUGU
22 | B22 | 0.0789 KA relative to UGCAUGU
23 | B23 | 0.122 KA relative to UGCAUGU
24 | B24 | 0.0933 KA relative to UGCAUGU
25 | B25 | 0.0847 KA relative to UGCAUGU
26 | B26 | 0.109 KA relative to UGCAUGU
27 | B27 | 0.468 KA relative to UGCAUGU
28 | B28 | 0.0745 KA relative to UGCAUGU
29 | B29 | 0.192 KA relative to UGCAUGU
30 | B30 | 0.101 KA relative to UGCAUGU
31 | B31 | 0.178 KA relative to UGCAUGU
